# Results published in the supplement of paper PMC8728848.
# This is one part of the list.
# Legend:
# Experiment in all cases: glycan array binding signal (z-score within array); higher = stronger binding
# Conditions in all cases: glycan notation: IUPAC condensed, linker removed
# [1] = molecular target: Gal(b1-3)GalNAc(b1-3)Gal(a1-4)Gal(b1-4)Glc
# Procedure, shortened: (§1)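 Arrays were curated from the Consortium for Functional Glycomics database, 3228 in total, and kept only where the protein sequence was available. Binding is expressed as a within-array Z-score. This score was averaged across arrays of the same protein sequence at different concentrations or buffers and across linkers, and negative values can be read as non-binding.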
# [2] = molecular target: Gal(b1-3)GalNAc(b1-4)Gal(b1-4)Glc
# Procedure, shortened: as §1
# [3] = molecular target: Gal(b1-3)GalNAc(b1-4)[Neu5Ac(a2-3)]Gal(b1-4)Glc
# Procedure, shortened: as §1
# [4] = molecular target: Gal(b1-3)GlcNAc
# Procedure, shortened: as §1
# [5] = molecular target: Gal(b1-3)GlcNAc(a1-3)Gal(b1-4)GlcNAc
# Procedure, shortened: as §1
# [6] = molecular target: Gal(b1-3)GlcNAc(a1-6)Gal(b1-4)GlcNAc
# Procedure, shortened: as §1
# [7] = molecular target: Gal(b1-3)GlcNAc(b1-2)Man
# Procedure, shortened: as §1
# [8] = molecular target: Gal(b1-3)GlcNAc(b1-2)Man(a1-3)[Gal(b1-3)GlcNAc(b1-2)Man(a1-6)]Man(b1-4)GlcNAc(b1-4)GlcNAc
# Procedure, shortened: as §1
# [9] = molecular target: Gal(b1-3)GlcNAc(b1-2)Man(a1-3)[Gal(b1-3)GlcNAc(b1-2)Man(a1-6)]Man(b1-4)GlcNAc(b1-4)[Fuc(a1-6)]GlcNAc
# Procedure, shortened: as §1
# [10] = molecular target: Gal(b1-3)GlcNAc(b1-2)Man(a1-3)[GlcNAc(b1-4)][Gal(b1-3)GlcNAc(b1-2)Man(a1-6)]Man(b1-4)GlcNAc(b1-4)GlcNAc
# Procedure, shortened: as §1
# [11] = molecular target: Gal(b1-3)GlcNAc(b1-2)[Gal(b1-3)GlcNAc(b1-6)]Man(a1-6)[Gal(b1-3)GlcNAc(b1-2)Man(a1-3)]Man(b1-4)GlcNAc(b1-4)GlcNAc
# Procedure, shortened: as §1
# [12] = molecular target: Gal(b1-3)GlcNAc(b1-3)Gal(b1-3)GlcNAc
# Procedure, shortened: as §1
# [13] = molecular target: Gal(b1-3)GlcNAc(b1-3)Gal(b1-4)Glc
# Procedure, shortened: as §1
# [14] = molecular target: Gal(b1-3)GlcNAc(b1-3)Gal(b1-4)GlcNAc
# Procedure, shortened: as §1
# [15] = molecular target: Gal(b1-3)GlcNAc(b1-3)Gal(b1-4)GlcNAc(b1-2)Man(a1-3)[Gal(b1-3)GlcNAc(b1-3)Gal(b1-4)GlcNAc(b1-2)Man(a1-6)]Man(b1-4)GlcNAc(b1-4)GlcNAc
# Procedure, shortened: as §1
# [16] = molecular target: Gal(b1-3)GlcNAc(b1-3)Gal(b1-4)GlcNAc(b1-2)[Gal(b1-3)GlcNAc(b1-3)Gal(b1-4)GlcNAc(b1-6)]Man(a1-6)[Gal(b1-3)GlcNAc(b1-3)Gal(b1-4)GlcNAc(b1-2)Man(a1-3)]Man(b1-4)GlcNAc(b1-4)[Fuc(a1-6)]GlcNAc
# Procedure, shortened: as §1
# [17] = molecular target: Gal(b1-3)GlcNAc(b1-3)Gal(b1-4)GlcNAc(b1-3)Gal(b1-4)GlcNAc(b1-2)[Gal(b1-3)GlcNAc(b1-3)Gal(b1-4)GlcNAc(b1-3)Gal(b1-4)GlcNAc(b1-6)]Man(a1-6)[Gal(b1-3)GlcNAc(b1-3)Gal(b1-4)GlcNAc(b1-3)Gal(b1-4)GlcNAc(b1-2)Man(a1-3)]Man(b1-4)GlcNAc(b1-4)[Fuc(a1-6)]GlcNAc
# Procedure, shortened: as §1
# [18] = molecular target: Gal(b1-3)GlcNAc(b1-3)Gal(b1-4)GlcNAc(b1-6)[Gal(b1-3)GlcNAc(b1-3)]Gal(b1-4)Glc
# Procedure, shortened: as §1
# [19] = molecular target: Gal(b1-3)GlcNAc(b1-3)Gal(b1-4)[Fuc(a1-3)]GlcNAc
# Procedure, shortened: as §1
# [20] = molecular target: Gal(b1-3)GlcNAc(b1-3)Gal(b1-4)[Fuc(a1-3)]GlcNAc(b1-6)[Gal(b1-3)GlcNAc(b1-3)]Gal(b1-4)Glc
# Procedure, shortened: as §1
# [21] = molecular target: Gal(b1-3)GlcNAc(b1-3)GalNAc
# Procedure, shortened: as §1
# [22] = molecular target: Gal(b1-3)GlcNAc(b1-6)Gal(b1-4)GlcNAc
# Procedure, shortened: as §1
# [23] = molecular target: Gal(b1-3)GlcNAc(b1-6)GalNAc
# Procedure, shortened: as §1
# [24] = molecular target: Gal(b1-3)GlcNAc(b1-6)[Gal(b1-3)]GalNAc
# Procedure, shortened: as §1
# [25] = molecular target: Gal(b1-3)GlcNAc6S
# Procedure, shortened: as §1
# [26] = molecular target: Gal(b1-3)[Fuc(a1-4)]GlcNAc
# Procedure, shortened: as §1
# [27] = molecular target: Gal(b1-3)[Fuc(a1-4)]GlcNAc(b1-2)Man
# Procedure, shortened: as §1
# [28] = molecular target: Gal(b1-3)[Fuc(a1-4)]GlcNAc(b1-2)Man(a1-3)[Gal(b1-3)[Fuc(a1-4)]GlcNAc(b1-2)Man(a1-6)]Man(b1-4)GlcNAc(b1-4)[Fuc(a1-6)]GlcNAc
# Procedure, shortened: as §1
# [29] = molecular target: Gal(b1-3)[Fuc(a1-4)]GlcNAc(b1-3)Gal(b1-3)[Fuc(a1-4)]GlcNAc
# Procedure, shortened: as §1
# [30] = molecular target: Gal(b1-3)[Fuc(a1-4)]GlcNAc(b1-3)Gal(b1-4)[Fuc(a1-3)]GlcNAc
# Procedure, shortened: as §1
# [31] = molecular target: Gal(b1-3)[Fuc(a1-4)]GlcNAc(b1-6)GalNAc
# Procedure, shortened: as §1
# [32] = molecular target: Gal(b1-3)[GlcNAc(b1-6)]GalNAc
# Procedure, shortened: as §1
# [33] = molecular target: Gal(b1-3)[Neu5Ac(a2-6)]GalNAc
# Procedure, shortened: as §1
# [34] = molecular target: Gal(b1-3)[Neu5Ac(a2-6)]GlcNAc(b1-4)Gal(b1-4)Glc
# Procedure, shortened: as §1
# [35] = molecular target: Gal(b1-3)[Neu5Ac(b2-6)]GalNAc
# Procedure, shortened: as §1
# [36] = molecular target: Gal(b1-4)Gal
# Procedure, shortened: as §1
# [37] = molecular target: Gal(b1-4)GalNAc(a1-3)[Fuc(a1-2)]Gal(b1-4)GlcNAc
# Procedure, shortened: as §1
# [38] = molecular target: Gal(b1-4)GalNAc(b1-3)[Fuc(a1-2)]Gal(b1-4)GlcNAc
# Procedure, shortened: as §1
binder,measurement,setting,value
PX9961H-bth-557-24-557 (Bacteroides thetaiotaomicron) (protein) EETRTEVEKKNYMNNAEEAKDVLLGVYRTNTLDAMYGYYLSILFNLGTDISQVEGSGNENFRIIPTNSFPTTQSEVQQTWAALYTGIYRANDFLERISNKIGSYTTTDKKLATLYIAEARALRGMFYFELVRRFGNVVLMTSTQMSNQNPATYVQSAPEKVYEYIEDDLLYACDILPYATDDQYRESNDYRFSKGAALGLLTKVYATWAGYPVKDESKWEAAAKTARILVESGKHGLLKDYEQLWKNTCNGTWDPTESLIEISFYSPTVSGNSDPVGRIGKWNGVKTTAIAGVRGSCAANVKVVHTFVLDWREDVSDIRRDLSIANYQYTDTKKSLWVAGASDTDESAAEKDADPTKAQKNKQNYTPAKWDIQKYVTTNSFINNDKSNVNWYFLRYADVLLLYAEALNEWKHGPDAEAYNAINAVRRRGYGNPSNTSACDLPQGLDETSFREAVRKERSYELSFEGHRRQDLIRWGIYYKTVQATAKELGYWWEGTGSPNYSVATYTEEGKHELFPIPQRDMDLCIQFNQNPKW,glycan array binding signal (z-score),[1],-0.351
same,glycan array binding signal (z-score),[2],-0.315
same,glycan array binding signal (z-score),[3],-0.535
same,glycan array binding signal (z-score),[4],-0.537
same,glycan array binding signal (z-score),[5],-0.348
same,glycan array binding signal (z-score),[6],-0.025
same,glycan array binding signal (z-score),[7],-0.341
same,glycan array binding signal (z-score),[8],5.54
same,glycan array binding signal (z-score),[9],-0.334
same,glycan array binding signal (z-score),[10],1.22
same,glycan array binding signal (z-score),[11],0.922
same,glycan array binding signal (z-score),[12],-0.383
same,glycan array binding signal (z-score),[13],-0.147
same,glycan array binding signal (z-score),[14],-0.35
same,glycan array binding signal (z-score),[15],2.88
same,glycan array binding signal (z-score),[16],1.55
same,glycan array binding signal (z-score),[17],0.301
same,glycan array binding signal (z-score),[18],-0.43
same,glycan array binding signal (z-score),[19],-0.22
same,glycan array binding signal (z-score),[20],-0.37
same,glycan array binding signal (z-score),[21],-0.426
same,glycan array binding signal (z-score),[22],-0.37
same,glycan array binding signal (z-score),[23],0.811
same,glycan array binding signal (z-score),[24],0.09
same,glycan array binding signal (z-score),[25],0.103
same,glycan array binding signal (z-score),[26],-0.121
same,glycan array binding signal (z-score),[27],1.56
same,glycan array binding signal (z-score),[28],-0.205
same,glycan array binding signal (z-score),[29],-0.279
same,glycan array binding signal (z-score),[30],-0.413
same,glycan array binding signal (z-score),[31],1.26
same,glycan array binding signal (z-score),[32],-0.03
same,glycan array binding signal (z-score),[33],-0.307
same,glycan array binding signal (z-score),[34],-0.021
same,glycan array binding signal (z-score),[35],-0.419
same,glycan array binding signal (z-score),[36],1.85
same,glycan array binding signal (z-score),[37],-0.549
same,glycan array binding signal (z-score),[38],-0.44
